Measured values from patent publication US20260234232A1 (QUAERITE BIOPHARM RESEARCH BEIJING, published 2026).
Blank lines part the entries; values can stand above or below the binder they belong to.

Legend:
human VEGFA165 [1] = molecular target: T1, human VEGFA165 (human, UniProt P15692-4 27-191); assay: SPR Biacore 8K, VEGFA165 (Sino Biological) on CM5, low immobilization, 1:1 fit
T1 construct: Bought protein from two suppliers, treated as one molecule; the supplier is named under assay; also called antigen VEGFA
T1 sequence (looked up): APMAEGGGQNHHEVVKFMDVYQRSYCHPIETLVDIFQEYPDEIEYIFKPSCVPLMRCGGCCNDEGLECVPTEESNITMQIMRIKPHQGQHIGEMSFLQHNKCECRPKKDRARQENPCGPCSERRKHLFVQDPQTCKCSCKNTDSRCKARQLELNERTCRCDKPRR
Method: (§1) In a multi-cycle mode, the chip was regenerated with 100 mM hydrochloric acid.

human VEGFA165 [2] = molecular target: T1, human VEGFA165; assay: ELISA, coated human VEGFA165, anti-human IgG detection
Method: The absorbance at 450 nm (OD450) was measured using a microplate reader.

human VEGFA165 [3] = molecular target: T1, human VEGFA165; assay: ELISA, coated human VEGFA165, anti-His detection
Method: Antigen human VEGFA165 (label-free, purchased from Sino Biological, Cat. No.: HPLC-10008-HNAH, hereinafter referred to as VEGFA) was diluted with ELISA coating buffer to a final concentration of 0.3 μg/mL and added to a microplate at 100 μL/well for coating at 4° C. overnight. […] The solution used for antibody dilution was PBS containing 0.1% Tween-20 (pH 7.4), i.e., PBST. After being incubated at 37° C. for 1 h, the microplate was washed 3 times with PBST, and a dilution of His-Tag murine monoclonal antibody (purchased from Proteintech, Cat. No.: 66005-1-Ig) was added. The plate was further incubated at 37° C. for 1 h and washed again. Subsequently, a dilution of HRP-labeled goat anti-mouse IgG antibody (HRP-conjugated Affinipure Goat Anti-Mouse IgG (H+L), purchased from Proteintech, Cat. No.: SA00001-1) was added, and the plate was incubated at room temperature for 45 min. After the plate was washed, 100 μL of TMB (purchased from Tiangen Biotech, Cat. No.: PA107-01) was added to each well for color development at 37° C. for 15 min, followed by the addition of 50 μL of stopping solution. The absorbance at 450 nm (OD450) was measured using a microplate reader.

human VEGFA165 [4] = molecular target: T1, human VEGFA165; assay: SPR Biacore 8K, fusion protein captured on Protein A chip, VEGFA165 (GenScript) analyte, 1:1 fit
human VEGFA165 [5] = molecular target: T1, human VEGFA165; assay: cell-based or functional assay
Rabbit VEGFA121 = molecular target: T2, Rabbit VEGFA121 (rabbit); assay: ELISA, coated rabbit VEGFA121, anti-human IgG detection
T2 construct: Expressed in 293F cells with its own signal peptide, purified on Ni beads
T2 chain: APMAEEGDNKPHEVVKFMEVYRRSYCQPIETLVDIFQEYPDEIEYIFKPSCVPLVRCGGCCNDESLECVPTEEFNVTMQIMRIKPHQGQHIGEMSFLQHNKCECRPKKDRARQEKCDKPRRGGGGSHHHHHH

Rat VEGFA164 = molecular target: T3, Rat VEGFA164 (rat, UniProt P16612-2 27-190); assay: ELISA, coated rat VEGFA164, anti-human IgG detection
T3 construct: Bought
T3 sequence (looked up): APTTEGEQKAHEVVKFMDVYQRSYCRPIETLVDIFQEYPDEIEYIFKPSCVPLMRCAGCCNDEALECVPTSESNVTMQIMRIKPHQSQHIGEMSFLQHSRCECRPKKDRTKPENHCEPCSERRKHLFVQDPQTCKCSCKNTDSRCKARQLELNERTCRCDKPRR

human VEGFA165 [6] = molecular target: T1, human VEGFA165; assay: SPR, KD of Tables 23 and 24 against aflibercept
Method: as §1

human VEGFA165 [7] = molecular target: T1, human VEGFA165; assay: cell-based or functional assay; remark: listed apart in the source
human VEGFA165 [8] = molecular target: T1, human VEGFA165; assay: ELISA, coated human VEGFA165, anti-human IgG detection; remark: listed apart in the source
Mouse VEGFA164 = molecular target: T4, Mouse VEGFA164 (mouse, UniProt Q00731-2 27-190); assay: ELISA, coated mouse VEGFA164, anti-human IgG detection
T4 construct: Bought
T4 sequence (looked up): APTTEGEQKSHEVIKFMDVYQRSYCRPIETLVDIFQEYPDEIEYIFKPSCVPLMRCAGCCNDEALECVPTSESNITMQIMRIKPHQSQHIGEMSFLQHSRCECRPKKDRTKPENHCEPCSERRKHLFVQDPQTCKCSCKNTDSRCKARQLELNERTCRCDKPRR

human VEGFA165 [9] = molecular target: T1, human VEGFA165; assay: SPR Biacore 8K, VEGFA165 (GenScript) on CM5, low immobilization, 1:1 fit

B1: 2V1-SA1-NL-Fc (Fc fusion)
chain: EVQLVESGGGLVQPGGSLRLSCAVSGRTFSSYTMGWFRQAPGKEREFVVAISKGGYKYDSVSLEARFTISRDNAKNTVYLQMNSLRPEDTAVYYCAATRAYGSSRLRLADTYEYWGQGTLVTVSSEVQLVESGGGLVQPGGSLRLSCAVSGRTFSSYTMGWFRQAPGKEREFVVAISKGGYKYDSVSLEARFTISRDNAKNTVYLQMNSLRPEDTAVYYCAATRAYGSSRLRLADTYEYWGQGTLVTVSS[letters of human IgG1 Fc omitted]
notes: Protein A purified
- Kd (human VEGFA165 [1]): 0.00353 nM
- koff (human VEGFA165 [1]): 4.55e-05 s⁻¹
- kon (human VEGFA165 [1]): 1.29e+07 M⁻¹ s⁻¹
- EC50 (human VEGFA165 [2]): 0.16 nM

B5: V1-SA1-Fc-m1 (Fc fusion)
chain: EVQLVESGGGLVQPGGSLRLSCAVSGRTFSSYTMGWFRQAPGKEREFVVAISKGGYKYDSVSLEARFTISRDNAKNTVYLQMNSLRPEDTAVYYCAATRAYGSSRLRLADTYEYWGQGTLVTVSS[letters of human IgG1 Fc with changes omitted]
- Kd (human VEGFA165 [4]): 0.148 nM
- koff (human VEGFA165 [4]): 0.00013 s⁻¹
- kon (human VEGFA165 [4]): 877000 M⁻¹ s⁻¹

B6: 2V1-3m-3GS-Fc (Fc fusion)
chain: EVQLVESGGGLVQPGGSLRLSCAASGRTFSSYTMGWFRQAPGKEREFVVAISKGGYKYDSVSLEARFTISRDNAKNTVYLQMNSLRPEDTAVYYCAATRAYGSSRLRLADTYEYWGQGTLVTVSSGGSEVQLVESGGGLVQPGGSLRLSCAASGRTFSSYTMGWFRQAPGKEREFVVAISKGGYKYDSVSLEARFTISRDNAKNTVYLQMNSLRPEDTAVYYCAATRAYGSSRLRLADTYEYWGQGTLVTVSS[letters of human IgG1 Fc omitted]
notes: Protein A purified
- EC50 (human VEGFA165 [2]): 0.11 nM

B10: 2V1-DP-3GS-Fc (Fc fusion)
chain: EVQLVESGGGLVQPGGSLRLSCAVSGRTFSSYTMGWFRQAPGKEREFVVAISKGGYKYDSVSLEARFTISRDNSKNTVYLQMNSLRPEDTAVYYCAATRAYGSSRLRLADTYEYWGQGTLVTVSSGGSEVQLVESGGGLVQPGGSLRLSCAVSGRTFSSYTMGWFRQAPGKEREFVVAISKGGYKYDSVSLEARFTISRDNSKNTVYLQMNSLRPEDTAVYYCAATRAYGSSRLRLADTYEYWGQGTLVTVSS[letters of human IgG1 Fc omitted]
notes: Protein A purified
- Kd (human VEGFA165 [1]): 0.00384 nM
- koff (human VEGFA165 [1]): 4.38e-05 s⁻¹
- kon (human VEGFA165 [1]): 1.14e+07 M⁻¹ s⁻¹
- EC50 (human VEGFA165 [2]): 0.14 nM

B11: 2V1-2m-3GS-Fc (Fc fusion)
chain: EVQLVESGGGLVQPGGSLRLSCAASGRTFSSYTMGWFRQAPGKEREFVVAISKGGYKYDSVSLEARFTISRDNSKNTVYLQMNSLRPEDTAVYYCAATRAYGSSRLRLADTYEYWGQGTLVTVSSGGSEVQLVESGGGLVQPGGSLRLSCAASGRTFSSYTMGWFRQAPGKEREFVVAISKGGYKYDSVSLEARFTISRDNSKNTVYLQMNSLRPEDTAVYYCAATRAYGSSRLRLADTYEYWGQGTLVTVSS[letters of human IgG1 Fc omitted]
notes: Protein A purified
- EC50 (human VEGFA165 [2]): 0.14 nM

More lines, now with the values ahead:

- EC50 (human VEGFA165 [2]): 0.13 nM
B2: 2V13-4m-NL-Fc (Fc fusion)
chain: EVQLVESGGGLVQPGGSLRLSCAASGRTFTSYTMGWFRQAPGKEREFVVAISKGGYKYDAVSLEARFTISRDNAKNTVYLQMNSLRPEDTAVYYCAGTRAYGSSRLRLADTYEYWGQGTLVTVSSEVQLVESGGGLVQPGGSLRLSCAASGRTFTSYTMGWFRQAPGKEREFVVAISKGGYKYDAVSLEARFTISRDNAKNTVYLQMNSLRPEDTAVYYCAGTRAYGSSRLRLADTYEYWGQGTLVTVSS[letters of human IgG1 Fc omitted]
notes: Protein A purified

- EC50 (human VEGFA165 [2]): 0.11 nM
B3: 2V1-DP-9GS-Fc (Fc fusion)
chain: EVQLVESGGGLVQPGGSLRLSCAVSGRTFSSYTMGWFRQAPGKEREFVVAISKGGYKYDSVSLEARFTISRDNSKNTVYLQMNSLRPEDTAVYYCAATRAYGSSRLRLADTYEYWGQGTLVTVSSGGGGSGGGSEVQLVESGGGLVQPGGSLRLSCAVSGRTFSSYTMGWFRQAPGKEREFVVAISKGGYKYDSVSLEARFTISRDNSKNTVYLQMNSLRPEDTAVYYCAATRAYGSSRLRLADTYEYWGQGTLVTVSS[letters of human IgG1 Fc omitted]
notes: Protein A purified

- EC50 (human VEGFA165 [3]): 0.35 nM
B4: V15-9GS-PPCP-Fc (Fc fusion)
chain: QLQLVESGGGSVQPGGSLRLSCEVSGRTFASYTMGWFRQAPGKEREFVVAISKGGYKYDSVSLEARFTISKDNTKNTVYLQMNSLKPEDTAVYYCAGTRAYGSSRLRLAETYEYWGQGTQVTVSSGGGGSGGGS[letters of human IgG1 Fc omitted]
notes: Monovalent nanobody-Fc fusion, dimer through Fc

- EC50 (human VEGFA165 [2]): 0.15 nM
B7: 2V30-2H-2m-3GS-Fc (Fc fusion)
chain: EVQLVESGGGLVQPGGSLRLSCAASGRTFSSYTMGWFRQAPGKEREFVVAISKGGYKYDAVSLEARFTISRDNSKNTVYLQMNSLRPEDTAVYYCAATRAYGSSRLRLAKTYEYWGQGTLVTVSSGGSEVQLVESGGGLVQPGGSLRLSCAASGRTFSSYTMGWFRQAPGKEREFVVAISKGGYKYDAVSLEARFTISRDNSKNTVYLQMNSLRPEDTAVYYCAATRAYGSSRLRLAKTYEYWGQGTLVTVSS[letters of human IgG1 Fc omitted]
notes: Protein A purified

- IC50 for inhibiting HUVEC proliferation, ratio to aflibercept (human VEGFA165 [5]): ~0.5 fold
- EC50 (Rabbit VEGFA121): 23.7 nM
- binding result (Rat VEGFA164): no binding
- KD as a fraction of aflibercept's KD (human VEGFA165 [6]): ~0.083 fold
- Kd (human VEGFA165 [1]): 0.00683 nM
- koff (human VEGFA165 [1]): 6.88e-05 s⁻¹
- kon (human VEGFA165 [1]): 1.01e+07 M⁻¹ s⁻¹
- EC50 (human VEGFA165 [2]): 0.13 nM
- HUVEC proliferation inhibition IC50 (human VEGFA165 [7]): 0.38 nM
- EC50 (human VEGFA165 [8]): 0.14 nM
- binding result (Mouse VEGFA164): no binding
- Kd (human VEGFA165 [9]): 0.00468 nM
- koff (human VEGFA165 [9]): 3.95e-05 s⁻¹
- kon (human VEGFA165 [9]): 8.44e+06 M⁻¹ s⁻¹
B8: 2V1-SA1-3GS-Fc (Fc fusion)
chain: EVQLVESGGGLVQPGGSLRLSCAVSGRTFSSYTMGWFRQAPGKEREFVVAISKGGYKYDSVSLEARFTISRDNAKNTVYLQMNSLRPEDTAVYYCAATRAYGSSRLRLADTYEYWGQGTLVTVSSGGSEVQLVESGGGLVQPGGSLRLSCAVSGRTFSSYTMGWFRQAPGKEREFVVAISKGGYKYDSVSLEARFTISRDNAKNTVYLQMNSLRPEDTAVYYCAATRAYGSSRLRLADTYEYWGQGTLVTVSS[letters of human IgG1 Fc omitted]
notes: Protein A purified

- EC50 (human VEGFA165 [2]): 0.17 nM
B9: 2V15-4m-3GS-Fc (Fc fusion)
chain: EVQLVESGGGLVQPGGSLRLSCAASGRTFASYTMGWFRQAPGKEREFVVAISKGGYKYDSVSLEARFTISRDNAKNTVYLQMNSLRPEDTAVYYCAGTRAYGSSRLRLAETYEYWGQGTLVTVSSGGSEVQLVESGGGLVQPGGSLRLSCAASGRTFASYTMGWFRQAPGKEREFVVAISKGGYKYDSVSLEARFTISRDNAKNTVYLQMNSLRPEDTAVYYCAGTRAYGSSRLRLAETYEYWGQGTLVTVSS[letters of human IgG1 Fc omitted]
notes: Protein A purified
